Measurements from PubChem BioAssay AID720709 (National Center for Advancing Translational Sciences (NCATS), 2013).
The whole screen tested about 360,000 compounds, of which about 520 (0.14%) were called active. The inconclusive results got no clear call from the source; some entries with a clear call stand among them for comparison. Calls come from the whole dose curve; as a rule, active = well fitted inhibition curve with a large enough effect; inconclusive = small, poorly fitted or top-dose-only effect; inactive = no such curve, though single readings can be large or run the other way. Potencies beside an inconclusive call are fits to weak or partial responses and may not hold up.

What follows are compounds tested against Rap guanine nucleotide exchange factor 3 (Homo sapiens) (UniProt O95398) (assay: qHTS for Antagonist of cAMP-regulated guanine nucleotide exchange factor 3 (EPAC1): primary screen). Conditions: EPAC1 GEF assay, Rap1b-BODIPY-GDP exchange fluorescence; activity change, negative = inhibition: at 115 µM (top of the series).
Note: nearly all actives have a fitted effect of over 50% in size.
Potency is the fitted concentration of half-maximal effect; tags give direction and shape of the fitted curve.
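Throughout, for activity change, negative = inhibition: plate controls were vehicle for no effect and positive control for full effect.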

Chain of UniProt O95398 (O95398 whole entry, looked up): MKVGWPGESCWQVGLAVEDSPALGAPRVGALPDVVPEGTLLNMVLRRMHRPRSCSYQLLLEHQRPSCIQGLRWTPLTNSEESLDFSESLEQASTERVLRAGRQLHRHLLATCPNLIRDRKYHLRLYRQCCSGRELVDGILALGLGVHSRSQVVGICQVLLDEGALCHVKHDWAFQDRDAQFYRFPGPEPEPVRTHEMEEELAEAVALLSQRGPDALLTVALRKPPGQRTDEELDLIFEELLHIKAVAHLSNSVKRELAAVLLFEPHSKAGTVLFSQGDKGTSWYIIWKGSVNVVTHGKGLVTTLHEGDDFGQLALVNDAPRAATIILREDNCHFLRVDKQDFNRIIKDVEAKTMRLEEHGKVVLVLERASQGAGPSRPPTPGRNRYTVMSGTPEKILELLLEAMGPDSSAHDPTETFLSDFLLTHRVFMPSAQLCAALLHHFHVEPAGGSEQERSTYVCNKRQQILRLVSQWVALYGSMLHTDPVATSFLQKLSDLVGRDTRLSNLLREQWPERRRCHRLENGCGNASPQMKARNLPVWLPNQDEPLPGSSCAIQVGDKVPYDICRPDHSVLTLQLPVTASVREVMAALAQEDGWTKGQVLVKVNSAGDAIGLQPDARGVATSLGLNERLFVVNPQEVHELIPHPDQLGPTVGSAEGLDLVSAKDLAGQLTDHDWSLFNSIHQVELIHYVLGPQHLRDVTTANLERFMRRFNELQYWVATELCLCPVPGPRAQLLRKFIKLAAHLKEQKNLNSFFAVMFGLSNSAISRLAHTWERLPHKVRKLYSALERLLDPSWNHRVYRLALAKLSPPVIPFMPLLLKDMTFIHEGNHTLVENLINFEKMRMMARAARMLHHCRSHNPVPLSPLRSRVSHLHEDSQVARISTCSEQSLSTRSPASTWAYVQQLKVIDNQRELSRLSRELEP

Potency, inconclusive:
Cc1ccc2c(c1)NC(=O)C(CC(=O)NCCCN1CCCCC1C)O2 (stereo unspecified) 89.1 µM [inhibitor, single point], CCc1ccc(C2CC(c3ccc(C)cc3)Nc3nc(N)nn32)cc1 (stereo unspecified) 100 µM [inhibitor, partial curve], CC(C)OCCCNC(=O)C1CCC(CNS(=O)(=O)c2ccc(Cl)cc2)CC1 (stereo unspecified) 50.1 µM [inhibitor, partial curve], COc1ccc(CNC(=O)COC(=O)c2ccc(OCc3c(C)noc3C)cc2)cc1OC 2.82 µM [inhibitor, full curve, poor fit], CCOc1ccc(NS(=O)(=O)c2ccc3c(c2)CCN3C(C)=O)cc1 112 µM [inhibitor, partial curve, poor fit], Cc1ccc(C2CC(c3ccc(Cl)cc3)=NNC2=O)cc1 (stereo unspecified) 100 µM [inhibitor, single point], CN(C)c1nc(C=C(C#N)C#N)c(Cl)n1-c1ccc(F)cc1 28.2 µM [inhibitor, partial curve], Cc1ccc(N(C)S(=O)(=O)c2cc(-c3cnc(C4CC4)o3)ccc2C)cc1 79.4 µM [inhibitor, single point], Fc1ccccc1NC(=S)NCCc1ccc(Cl)cc1 100 µM [inhibitor, single point], O=C(COC(=O)c1ccc(O)cc1O)NCCN1C(=O)CSC1=O 89.1 µM [inhibitor, partial curve], Cc1nnc(NNS(=O)(=O)c2ccc(Cl)cc2)[nH]c1=O 50.1 µM [inhibitor, partial curve], Cc1cccc2cc3c(NC(=O)c4ccccn4)nn(C)c3nc12 56.2 µM [inhibitor, partial curve, poor fit], Nc1n[nH]c(C2CC2)c1N=Nc1ccc(Cl)c(Cl)c1 100 µM [inhibitor, single point], O=C(CN1C(=O)NC(c2ccc(F)cc2)C1=O)Nc1ccc2c(c1)OCCO2 (stereo unspecified) 126 µM [inhibitor, partial curve], O=[N+]([O-])c1cc(Br)cc(C=Nc2ccc3c(c2)OCO3)c1O 56.2 µM [inhibitor, partial curve], COc1cc(OC)nc(Oc2cc(C=O)ccc2OC)n1 25.1 µM [inhibitor, single point], Nc1c(Cl)ncnc1N/N=C/c1ccc(O)cc1 100 µM [inhibitor, single point], Cc1cccc(-n2c(-c3ccccc3)c[nH]c2=S)c1C 89.1 µM [inhibitor, single point], CCOc1ccc(C2c3[nH]c4ccccc4c3CCN2Cc2cccn2-c2ncccn2)cc1 (stereo unspecified) 79.4 µM [inhibitor, partial curve], O=c1[nH]c2cc3c(cc2cc1CN(Cc1ccccc1)Cc1nnnn1Cc1ccco1)OCCO3 70.8 µM [inhibitor, partial curve], O=C(NC1CCCCC1)C(C1CC1)n1c(=O)c(-c2ccco2)nc2ccccc21 (stereo unspecified) 70.8 µM [inhibitor, single point], CCOc1cc(/C=C2/NC(=O)NC2=O)cc(Br)c1OCc1ccc(C(=O)O)cc1 28.2 µM [inhibitor, full curve], CCOCCCNC(=O)c1cc2c(-c3ccc(Cl)cc3)nn(C)c2s1 89.1 µM [inhibitor, single point], N=c1nc(SCCC(=O)O)ss1 100 µM [inhibitor, single point], CCN(c1ccccc1)S(=O)(=O)c1nnc(NC(=O)C(C)(C)C)s1 22.4 µM [inhibitor, full curve, poor fit], COc1ccc(Cl)cc1Cn1c(C)c(C(=O)NCc2cccc(Cl)c2)sc1=O 50.1 µM [inhibitor, partial curve, poor fit], CC(=O)NC(CC(=O)Nc1nccs1)c1ccccc1 (stereo unspecified) 89.1 µM [inhibitor, single point], O=C(Nc1ccc(-c2ccc3nncn3n2)cc1)c1ccc(Br)o1 35.5 µM [inhibitor, full curve, poor fit], COC(=O)C(C)NC(=O)CNS(=O)(=O)c1ccc(F)cc1 (stereo unspecified) 100 µM [inhibitor, single point], CCc1nc2ccc(C(=O)N(C)CC(=O)Nc3ccc(Cl)c(C(F)(F)F)c3)cc2nc1CC 31.6 µM [inhibitor, partial curve, poor fit], O=C1C(Cl)=C(NCCc2ccccc2)C(=O)c2ccccc21 100 µM [inhibitor, single point], Cc1sc2nc[nH]c(=O)c2c1-c1ccc(F)cc1 44.7 µM [inhibitor, partial curve, poor fit], Cc1ccc(C(=O)OCC(=O)c2c[nH]c3ccccc23)cc1NC(=O)c1ccco1 112 µM [inhibitor, partial curve, poor fit], COc1ccc(CC(=O)Nc2ccc(NC(=O)c3ccccc3F)cc2)cc1 100 µM [inhibitor, single point], O=C(O)CC/C(=C\c1cccc(NC(=O)c2ccccc2Cl)c1)c1nc2ccccc2s1 79.4 µM [inhibitor, partial curve], O=C(c1ccc(Cl)nc1)N1CCN(C/C=C/c2ccccc2)CC1 2.82 µM [inhibitor, full curve, poor fit], COc1cc(NC(=O)COC(=O)CCCC2=NS(=O)(=O)c3ccccc3N2)cc(OC)c1 56.2 µM [inhibitor, partial curve, poor fit], COc1ccc2oc(C(=O)OCC(=O)/C(C#N)=C(\C)N)c(C)c2c1 56.2 µM [inhibitor, partial curve], COc1cccc2sc(N(CCCN(C)C)C(=O)C(c3ccccc3)c3ccccc3)nc12 28.2 µM [inhibitor, full curve, poor fit], CCOC(=O)C(CSCC(=O)c1ccc(Cl)cc1Cl)NC(=O)OC(C)(C)C (stereo unspecified) 17.8 µM [inhibitor, full curve], N#Cc1ccc(-c2nc3ccc(Cl)cn3c2Cc2cccc(F)c2)cc1 35.5 µM [inhibitor, full curve, poor fit], CCN(CC)c1ccc(/C=N/NC(=O)c2c[nH]c3ccccc23)cc1 10 µM [inhibitor, full curve], Cc1cc(C)c(C)c(S(=O)(=O)N2CCC(C(=O)N(C)Cc3nc4ccccc4c(=O)[nH]3)CC2)c1C 15.8 µM [inhibitor, partial curve], CC(C)(C)OC(=O)NCCCC[C@H](NC(=O)c1nc[nH]c1C(=O)N[C@@H](CCCCNC(=O)OC(C)(C)C)C(=O)OC(C)(C)C)C(=O)OC(C)(C)C 22.4 µM [inhibitor, partial curve], O=C(OCC(=O)N1CCc2ccccc21)c1cncc(Br)c1 2.82 µM [inhibitor, full curve, poor fit], CC(C)OC(=O)/C(=C/c1ccc(Br)cc1)NC(=O)c1ccco1 39.8 µM [inhibitor, partial curve], CC(=O)Nc1ccc(NC(=O)COC(=O)C2c3ccccc3Oc3ccccc32)cc1 39.8 µM [inhibitor, single point]

Potency, active:
CCOc1cccc(CNc2ccc(O)cc2)c1OCc1ccccc1Cl 28.2 µM, COc1ccc(CCn2c(O)cc3nn(-c4nc5ccccc5s4)c(=O)c-3c2C)cc1 50.1 µM

Activity change, negative = inhibition, inconclusive:
COc1ccc(NC(=O)CS(=O)(=O)c2ccc(C)cc2)c(OC)c1 -6.33% [inhibitor], Cc1ccc(NC(=O)CSc2ccc(-c3ccco3)nn2)c(C)c1 -30.9% [inhibitor]

Activity change, negative = inhibition, inactive:
CC(C)c1ccc(CNc2ncccn2)cc1 -12%, CN(C)c1ccc(C(=O)c2ccc(O)cc2O)cc1 1.84%, CCOc1ccc(C(=O)CCN2CCCCC2)cc1 7.9%, CC1CCCN(C(=O)c2ccc([N+](=O)[O-])o2)C1 (stereo unspecified) 14.1%, CC(=O)c1sc(C(=O)O)c(-c2ccco2)c1-c1ccco1 4.4%, CC(C)(C)[C@H](NC(=O)c1ccc(N)c(Cl)c1)C(=O)N1CCC[C@H]1C(=O)N[C@H](C#N)CC(=O)O -14%, COc1cc(CN2C[C@@H](CO)O[C@@H](n3cnc4c(NCCN(C)C)ncnc43)C2)cc(OC)c1OC -7.38%, COc1ccccc1CNC(=O)c1cccc(N(C)C)c1 14.9%, O=S(=O)(c1ccc(SCc2ccccc2F)nc1)N1CCCC1 -7.12%, COc1ccc(NC(=O)CSc2nc3[nH]ncc3c(=O)[nH]2)cc1OC 9.5%, O=C(NC(=S)Nc1ccc2c(c1)OCCO2)c1cccc2ccccc12 -3.9%, Cc1c(CC(=O)NC(C)C)c(=O)oc2cc3c(cc12)CCC(C)(C)O3 2.25%, COc1cc(-c2c(-c3ccsc3)sc3ccccc23)cc(OC)c1OC 8.09%, CCCC(=O)N1CCC1(C)C(=O)NS(=O)(=O)c1cc2c(cc1C)CCCS2(=O)=O (stereo unspecified) -0.331%, CCOc1ncccc1C(=O)OCC(=O)c1cc(C)n(Cc2ccco2)c1C 6.52%
